# From the supplement of paper PMC8728848
# Some of the results follow.
# B1: SLP (Clostridium difficile), Q183M8 (protein)
# chain: MATTGTQGYTVVKNDWKKAVKQLQDGLKDNSIGKITVSFNDGVVGEVAPKSANKKADRDAAAEKLYNLVNTQLDKLGDGDYVDFSVDYNLENKIITNQADAEAIVTKLNSLNEKTLIDIATKDTFGMVSKTQDSEGKNVAATKALKVKDVATFGLKSGGSEDTGYVVEMKAGAVEDKYGKVGDSTAGIAINLPSTGLEYAGKGTTIDFNKTLKVDVTGGSTPSAVAVSGFVTKDDTDLAKSGTINVRVINAKEESIDIDASSYTSAENLAKRYVFDPDEISEAYKAIVALQNDGIESNLVQLVNGKYQVIFYPEGKRLETKSLEHHHHHH
# How the values were obtained:
# Test in all cases: glycan array binding signal (z-score within array); higher = stronger binding
# Details in all cases: glycan notation: IUPAC condensed, linker removed
# [1] = target: Kdn(a2-3)Gal(b1-4)[Fuc(a1-3)]GlcNAc
# Procedure, shortened: (§1)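 The binding signal is a Z-score computed within each array and averaged over linkers. Arrays of the same protein sequence at different concentrations or buffers were also averaged together. Data originate from 3228 arrays in the Consortium for Functional Glycomics database, kept only where the protein sequence was available.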
# [2] = target: Kdn(a2-6)Gal(b1-4)GlcNAc
# Procedure, shortened: as §1
# [3] = target: Man(a1-2)Man(a1-2)Man(a1-3)Man
# Procedure, shortened: as §1
# [4] = target: Man(a1-2)Man(a1-2)Man(a1-6)[Man(a1-3)]Man
# Procedure, shortened: as §1
# [5] = target: Man(a1-2)Man(a1-3)Man
# Procedure, shortened: as §1
# [6] = target: Man(a1-2)Man(a1-3)[Man(a1-2)Man(a1-6)]Man
# Procedure, shortened: as §1
# [7] = target: Man(a1-2)Man(a1-3)[Man(a1-2)Man(a1-6)]Man(a1-6)[Man(a1-2)Man(a1-2)Man(a1-3)]Man
# Procedure, shortened: as §1
# [8] = target: Man(a1-2)Man(a1-3)[Man(a1-2)Man(a1-6)]Man(a1-6)[Man(a1-2)Man(a1-2)Man(a1-3)]Man(b1-4)GlcNAc(b1-4)GlcNAc
# Procedure, shortened: as §1
# [9] = target: Man(a1-2)Man(a1-3)[Man(a1-6)]Man(a1-6)[Man(a1-2)Man(a1-3)]Man(b1-4)GlcNAc(b1-4)GlcNAc
# Procedure, shortened: as §1
# [10] = target: Man(a1-2)Man(a1-6)[Man(a1-3)]Man(a1-6)[Man(a1-2)Man(a1-2)Man(a1-3)]Man
# Procedure, shortened: as §1
# [11] = target: Man(a1-2)Man(a1-6)[Man(a1-3)]Man(a1-6)[Man(a1-2)Man(a1-2)Man(a1-3)]Man(b1-4)GlcNAc(b1-4)GlcNAc
# Procedure, shortened: as §1
# [12] = target: Man(a1-3)[Man(a1-6)]Man
# Procedure, shortened: as §1
# [13] = target: Man(a1-3)[Man(a1-6)]Man(a1-6)[Man(a1-2)Man(a1-3)]Man(b1-4)GlcNAc(b1-4)GlcNAc
# Procedure, shortened: as §1
# [14] = target: Man(a1-3)[Man(a1-6)]Man(a1-6)[Man(a1-3)]Man
# Procedure, shortened: as §1
# [15] = target: Man(a1-3)[Man(a1-6)]Man(a1-6)[Man(a1-3)]Man(b1-4)GlcNAc(b1-4)GlcNAc
# Procedure, shortened: as §1
# [16] = target: Man(a1-3)[Man(a1-6)]Man(b1-4)GlcNAc(b1-4)GlcNAc
# Procedure, shortened: as §1
# [17] = target: Man(a1-6)Man
# Procedure, shortened: as §1
# [18] = target: Man(b1-4)GlcNAc
# Procedure, shortened: as §1
# [19] = target: Neu5Ac(a2-3)Gal
# Procedure, shortened: as §1
# [20] = target: Neu5Ac(a2-3)Gal(b1-3)GalNAc
# Procedure, shortened: as §1
# [21] = target: Neu5Ac(a2-3)Gal(b1-3)GalNAc(b1-3)Gal(a1-4)Gal(b1-4)Glc
# Procedure, shortened: as §1
# [22] = target: Neu5Ac(a2-3)Gal(b1-3)GalNAc(b1-4)[Neu5Ac(a2-3)]Gal(b1-4)Glc
# Procedure, shortened: as §1
# [23] = target: Neu5Ac(a2-3)Gal(b1-3)GalNAc6S
# Procedure, shortened: as §1
# [24] = target: Neu5Ac(a2-3)Gal(b1-3)GlcNAc
# Procedure, shortened: as §1
# [25] = target: Neu5Ac(a2-3)Gal(b1-3)GlcNAc(b1-2)Man(a1-3)[Neu5Ac(a2-3)Gal(b1-3)GlcNAc(b1-2)Man(a1-6)]Man(b1-4)GlcNAc(b1-4)GlcNAc
# Procedure, shortened: as §1
# [26] = target: Neu5Ac(a2-3)Gal(b1-3)GlcNAc(b1-3)Gal(b1-3)GlcNAc
# Procedure, shortened: as §1
# [27] = target: Neu5Ac(a2-3)Gal(b1-3)GlcNAc(b1-3)Gal(b1-4)GlcNAc
# Procedure, shortened: as §1
# [28] = target: Neu5Ac(a2-3)Gal(b1-3)GlcNAc(b1-3)GalNAc
# Procedure, shortened: as §1
# [29] = target: Neu5Ac(a2-3)Gal(b1-3)GlcNAc6S
# Procedure, shortened: as §1
# [30] = target: Neu5Ac(a2-3)Gal(b1-3)[Fuc(a1-4)]GlcNAc
# Procedure, shortened: as §1
# [31] = target: Neu5Ac(a2-3)Gal(b1-3)[Fuc(a1-4)]GlcNAc(b1-3)Gal(b1-3)[Fuc(a1-4)]GlcNAc
# Procedure, shortened: as §1
# [32] = target: Neu5Ac(a2-3)Gal(b1-3)[Fuc(a1-4)]GlcNAc(b1-3)Gal(b1-4)[Fuc(a1-3)]GlcNAc
# Procedure, shortened: as §1
# [33] = target: Neu5Ac(a2-3)Gal(b1-3)[Neu5Ac(a2-3)Gal(b1-4)]GlcNAc
# Procedure, shortened: as §1
# [34] = target: Neu5Ac(a2-3)Gal(b1-3)[Neu5Ac(a2-6)]GalNAc
# Procedure, shortened: as §1
# [35] = target: Neu5Ac(a2-3)Gal(b1-4)Glc
# Procedure, shortened: as §1
binder,measurement,setting,value
B1,glycan array binding signal (z-score),[1],-0.144
same,glycan array binding signal (z-score),[2],-0.176
same,glycan array binding signal (z-score),[3],2.27
same,glycan array binding signal (z-score),[4],-0.17
same,glycan array binding signal (z-score),[5],-0.117
same,glycan array binding signal (z-score),[6],-0.192
same,glycan array binding signal (z-score),[7],-0.18
same,glycan array binding signal (z-score),[8],-0.167
same,glycan array binding signal (z-score),[9],-0.154
same,glycan array binding signal (z-score),[10],-0.161
same,glycan array binding signal (z-score),[11],-0.129
same,glycan array binding signal (z-score),[12],-0.17
same,glycan array binding signal (z-score),[13],-0.142
same,glycan array binding signal (z-score),[14],-0.206
same,glycan array binding signal (z-score),[15],-0.166
same,glycan array binding signal (z-score),[16],-0.173
same,glycan array binding signal (z-score),[17],-0.213
same,glycan array binding signal (z-score),[18],-0.179
same,glycan array binding signal (z-score),[19],-0.169
same,glycan array binding signal (z-score),[20],-0.163
same,glycan array binding signal (z-score),[21],-0.149
same,glycan array binding signal (z-score),[22],-0.189
same,glycan array binding signal (z-score),[23],-0.139
same,glycan array binding signal (z-score),[24],-0.182
same,glycan array binding signal (z-score),[25],-0.149
same,glycan array binding signal (z-score),[26],-0.182
same,glycan array binding signal (z-score),[27],-0.195
same,glycan array binding signal (z-score),[28],-0.154
same,glycan array binding signal (z-score),[29],-0.167
same,glycan array binding signal (z-score),[30],-0.191
same,glycan array binding signal (z-score),[31],-0.094
same,glycan array binding signal (z-score),[32],-0.057
same,glycan array binding signal (z-score),[33],-0.184
same,glycan array binding signal (z-score),[34],0.043
same,glycan array binding signal (z-score),[35],-0.164
